Source: the supplement of paper PMC11417369
± gives the standard deviation of the averaged measurements. Some of the results follow.

Test system: PfAP2-LT AP2 domain (GST-tagged)
Experiment: gcPBM binding intensity (ln(normalized median fluorescence intensity)); higher = stronger DNA binding
In short: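 DNA-binding domains from P. falciparum, fused to GST and produced in E. coli, were put on an Agilent 4 × 180k double-stranded probe array for 1 h in 1× PBS holding 1% milk, 0.2 mg/ml BSA, 0.5% salmon testes DNA and 0.03% Triton X-100. Probes were primer-extended, 36 bp long and drawn from intergenic genomic regions, with negative controls included. After Alexa488 anti-GST antibody detection and a 488 nm scan, binding intensity was set as the highest Masliner-normalised natural-log median intensity across replicate spots of either probe orientation.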

Sequence	gcPBM binding intensity (ln)
TAAATCCTTTACAACACACACACAAAAAAAAAAAAA [CACACA_site643]	9.35 ± 0.38
TTTTTTTTTTTTTTTTTTTATGTATACATATTTATA [TGCATGCA_negctrl_site234]	8.54 ± 0.45
TCATTTTAAAAAAATAGTACTTTAAGAAACTTTTAT [XGTACX_site602]	8.04 ± 0.5
TTTTTTTTTTTTTTCTGTACTTAAAAAGGGGGAGAA [XGTACX_site3799]	8.96 ± 0.13
CAAACATGTTCAAATTGTACAATAGAAAATATATAT [XGTACX_site1557]	8.9 ± 0.44
TTGAAGTTTGATTGTAGTACGAATTGGTAGTTTTTT [XGTACX_site6854]	8.78 ± 0.32
CAAATACATGGACACACACACATATACAGATATATA [CACACA_site5854]	9.85 ± 0.48
GTGAATATTAAAAAATGTACACAATTATATGTATAT [XGTACX_site4834]	8.81 ± 0.42
AGAAAAGAGAGAAAAACATGCACATGATATTATAAA [TGCATGCA_site120]	8.76 ± 0.61
TTCTTTTAATTACGAGTGCATACCATATGACATTAT [GTGCAC_site9819]	8.81 ± 0.48
ATAAACATCTAGTGCTGTACACAATTTGATTTTTTT [XGTACX_site3110]	8.78 ± 0.36
GATTATATATACAAAAGTACATTATAAAAATTTCAT [XGTACX_site4223]	8.55 ± 0.55
CCCTTAAAATATAAATGTACAAAATTATTTGTATGT [XGTACX_site6164]	8.78 ± 0.33
TGAGTATATATAAATACACACCAAATGTTAATATAT [CACACA_site5022]	8.95 ± 0.32
AGGTTAATCGAAATTGCATGTGACGAAAAATCAAAA [TGCATGCA_site666]	8.7 ± 0.54
ACGTATGTATATTACACACATACATATTATTCACTA [CACACA_site204]	9.12 ± 0.3
TATTTATAACATTGTACACACAAAGAAATAATATTA [CACACA_site7422]	8.81 ± 0.45
ATAATATTTTATATAGTGCATTTGCTCATTATATAT [GTGCAC_site9528]	8.85 ± 0.36
ATGATAAACATGGATACACACATATATATTACATAT [CACACA_site1576]	9.21 ± 0.39
CATATATAACATATAACACACATACTTAGTATTACA [CACACA_site5674]	8.98 ± 0.41
ACATATATATACTATCGATTAATAAATTTGTTTTTT [CACACA_negctrl_site881]	8.71 ± 0.45
AGCACAGACTAATAAACACACACATATATATATATA [CACACA_site8021]	10.1 ± 0.18
ATATATATATATATATGTACATATTTATTTATTTAT [XGTACX_site5161]	9.6 ± 0.38

Sequence	gcPBM binding intensity (ln)
CTCATTCTTTTTTGATGTACTTTTTTTTTTTAAGTT [XGTACX_site2875]	8.57 ± 0.43
TATCTTATATTTACACGTACGTAGAATTTATAAGTT [XGTACX_site3460]	8.67 ± 0.41
TTTTATTAATATTATTTATCTTCTCAAAAGATATAT [XGTACX_negctrl_site202]	8.3 ± 0.45
CACACGTATAAATATACACACTAAAATACACGCACA [CACACA_site7876]	9.38 ± 0.4
AAAAGAGAAACATTTACACACAAATATAGATATATG [CACACA_site1027]	9.08 ± 0.44
TTTTATGGAAAGTGTTGTACATATTTTTGTATATGT [XGTACX_site7356]	8.79 ± 0.38
TTGTATAATTTAACAAGTACAAAATAAATTTGTATA [XGTACX_site5505]	8.53 ± 0.47
TTCAATTAAAAAATATGTACGCATAAATTGATATAT [XGTACX_site4289]	8.63 ± 0.34
ATAGTATACGGACACACACACACACCGATATATATA [CACACA_site5032]	10.3 ± 0.38
CTTTTTTTAGTTAGGTGTACAATTTGTTATTATTAG [XGTACX_site1507]	8.78 ± 0.52
TATAACAGGAATTATATATATATATATATATATTAT [CACACA_negctrl_site911]	9.21 ± 0.28
TTTTTTTTTTTTTTTTGTACATATTTCTTATAAGTG [XGTACX_site6459]	8.44 ± 0.45
TTTAATATGTATTTTTTTTTTTTTTTTTTTTTTTTT [XGTACX_negctrl_site440]	8.55 ± 0.13
TTTTATATCTAGTTTATATTTCTTAAATAAATAAAT [GTGCAC_negctrl_site245]	8.06 ± 0.61
CAAATTAAATATTATGCATGTACCAAACATCCTACC [TGCATGCA_site35]	8.84 ± 0.43
AACATATAAATGATATGTACACACATTTATATATAT [XGTACX_site7364]	9.12 ± 0.42
TAATACAAAAAGAAAAGTACATGTTAATTATTATTT [XGTACX_site2196]	8.56 ± 0.57
GGAAGAATATATAGGACACACATACAATAATAAATA [CACACA_site6124]	9.21 ± 0.54
TTTTTTTTTTTTTTTTTTTTTTGTGAAACTAAGTAA [CACACA_negctrl_site273]	8.16 ± 0.33
TTTTTTTTTTTTTTTTTGCAATATATTTTAAAAAAG [CACACA_negctrl_site25]	8.14 ± 0.33
AACTTCTTTTTTATAACACACAAAATATAAATACAA [CACACA_site4313]	8.56 ± 0.4
ACCTGAAGAGTCAAACGTACAAATATTATAAAATGA [XGTACX_site3188]	8.77 ± 0.59
TTAATACATTAAATATGTACTTATATATCTCAACTA [XGTACX_site3997]	8.69 ± 0.5

Sequence	gcPBM binding intensity (ln)
GTTATATTTTTTTTTTGTACATAATATTGTATTGAC [XGTACX_site6338]	9.05 ± 0.4
AGTAGCATATTCTATTGTACATATATATATATATAT [XGTACX_site2980]	9.46 ± 0.18
ATTAAAAACGGGTGTACACATATATAAATATATATA [CACACA_site4539]	9.04 ± 0.53
ATATGTATATATGTATGTACGTACAAATTGTTGTAA [XGTACX_site8832]	9.19 ± 0.4
TGTATAAAGATATATACACACATATTTATTTATATA [CACACA_site6493]	8.71 ± 0.42
TACAAAATAACTAGCACACATATGTATAAACCTATA [CACACA_site3718]	9.16 ± 0.39
ATATATAAAATTATATGTACATATATAATATATATA [XGTACX_site529]	8.77 ± 0.39
TATATAAAAATCAATTGTACTTTTTTTTTTTTTTTT [XGTACX_site7327]	8.41 ± 0.42
TATATACAAAAATGCACACGAAAAGTAATATATATA [CACACA_site4173]	9.18 ± 0.35
AAATAACACATATATACACACATATAACTATAATAT [CACACA_site7298]	9.29 ± 0.4
TATATATATATGTGCACACATATATAATATGTATAA [CACACA_site715]	9.54 ± 0.31
TAGAACAAATAAAACACACACATATATATATATATG [CACACA_site2768]	9.54 ± 0.27
TCATCCGTTTTAAGAAGTACATATTTGAACATATAA [XGTACX_site8040]	8.37 ± 0.46
TTTTTTTCTTTTCAAACACACAATTGGTATATATTA [CACACA_site3320]	8.79 ± 0.49
TTTATTTTTTAATGTTGTACAATGTTGTTTAATCAA [XGTACX_site6489]	8.67 ± 0.27
CATAGGATTATACTTTTGGAATATTATTAAATATGT [XGTACX_negctrl_site75]	8.54 ± 0.37
ACATGTCAAACATTTGCACACAAAAAAATAAAAATT [CACACA_site691]	9.16 ± 0.42
AAAAAAAAAAAAAACACACACACAATAGTATATAAA [CACACA_site957]	9.55 ± 0.43
TTGTTACTGTTTTGGTGTACAAAAAAAAAAAATATA [XGTACX_site5762]	8.55 ± 0.49
AATACAGATAATACAACACACAAGTAATATAAACCT [CACACA_site5900]	9.35 ± 0.32
TATATATATTTTTATGCACACACAAAGAAAATTTTC [CACACA_site8931]	9.1 ± 0.38
TACTTACTTACTTACTCACACACATATACAAAGAAA [CACACA_site3348]	8.99 ± 0.4
ATCACAAAATGGAATGTTCTATGATATATATGTATA [XGTACX_negctrl_site460]	8.65 ± 0.4

Sequence	gcPBM binding intensity (ln)
TGTAAATATTTATTCACACATAATCAATTAGAAAAA [CACACA_site5944]	8.43 ± 0.37
GATGATTATATATATACGCACACTTTTTTTTTTTTT [CACACA_site2652]	8.96 ± 0.43
AATATATAAATCTATTGTACATAAAGAGGATAATAA [XGTACX_site1022]	8.8 ± 0.51
TATAAATACAGATACACACACACACCGATATATATA [CACACA_site5271]	9.94 ± 0.18
ATAAATATATATATCACACATATATAATTATATATA [CACACA_site4787]	8.71 ± 0.32
TATGTAGTTTTAAAGTGTACTTATATATATTAATTG [XGTACX_site378]	8.6 ± 0.49
TACATACATATATTATGTACATATTTTATTTTTATT [XGTACX_site1642]	8.97 ± 0.43
TTTCTTTTAATAATTAAATATTTATTTATGATTATA [TGCATGCA_negctrl_site30]	8.3 ± 0.57
AAAAAAAATTCGTGTGTGCGCATATATAATATATAA	9.43 ± 0.38
AAGCATACATCAAGCACACACACACCCACAGAGACA [CACACA_site4362]	9.91 ± 0.22
TCTATACCAGAAAAGGGTACATATTTTGGATTGAAC [XGTACX_site8402]	8.71 ± 0.51
TAATAATACCCAAGCACACACACACCCATATATATA [CACACA_site4831]	10.1 ± 0.33
ATTGCAAGTTACTTGTGTACTTATAAGATTAAAAGA [XGTACX_site7696]	8.62 ± 0.45
AATATAAATAAAAACACACACAATGGTACATATATA [CACACA_site3671]	9.42 ± 0.4
TACTGTGATAGCACCACACACGCAAAAGTGGGTATA [CACACA_site4749]	9.12 ± 0.46
TTTAAATCGTTAAAAACACACAAAAAAAATCAATTA [CACACA_site2519]	8.56 ± 0.43
TCTTTTTCTTCTTATGTGCACATCAATTATGCTTCT	9.18 ± 0.62
ACTATCATTCATAGGTGTACCTAAATATATATATAT [XGTACX_site1696]	8.91 ± 0.25
GATAATTACGGACACACACACACACGCACAACTAAA [CACACA_site7254]	10.215 ± 0.0071
CGAATATATTCTAGACGTACTATATAATATATATAT [XGTACX_site4953]	8.72 ± 0.36
